The supplement of paper PMC12217912
This is one part of the list. The full chains were built here from the parent and the listed change. Values near 0.05 are background.

B1: TEV protease; numbered along this chain (parent)
chain: MGESLFKGPRDYNPISSSICHLTNESDGHTTSLYGIGFGPFIITNKHLFRRNNGTLVVQSLHGVFKVKDTTTLQQHLVDGRDMIIIRMPKDFPPFPQKLKFREPQREERICLVTTNFQTKSMSSMVSDTSCTFPSGDGIFWKHWIQTKDGQCGSPLVSTRDGFIVGIHSASNFTNTNNYFTSVPKNFMELLTNQEAQQWVSGWRLNADSVLWGGHKVFMVKPEEPFQPVKEATQL

Variants of: B1
Assay: raw area under fraction-flipped curve 0-4 h after induction (AUC4h, not background-subtracted), DNA-recorder readout of cleavage of the substrate (dimensionless); higher = more cleavage of the substrate by the protease variant
Conditions: temperature: 34 °C; time window: 0-4 h after rhamnose induction
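Also: Bxb1 expression induced with 0.2% (w/v) L-rhamnose at OD600 near 0.5, cultures sampled hourly, flipped fraction per protease–substrate barcode pair counted by paired-end Illumina sequencing.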

| Variant | area with substrate ENLYFCS | area with substrate ENLYFDS | area with substrate ENLYFES | area with substrate ENLYFFS | area with substrate ENLYFHS | area with substrate ENLYFIS | area with substrate ENLYFKS | area with substrate ENLYFMS | area with substrate ENLYFNS | area with substrate ENLYFPS | area with substrate ENLYFRS | area with substrate ENLYFSS | area with substrate ENLYFTS | area with substrate ENLYFVS | area with substrate ENLYFGS | area with substrate ENLYFYS | area with substrate ENLYFLS | area with substrate ENLYFWS |
| --- | --- | --- | --- | --- | --- | --- | --- | --- | --- | --- | --- | --- | --- | --- | --- | --- | --- | --- |
| R102K | 0.0567 | 0.0575 | 0.0619 | 0.0852 | 0.0575 | 0.0574 | 0.0618 | 0.0747 | 0.0698 | 0.0658 | 0.0554 | 0.0574 | 0.0638 | 0.0562 |  |  |  |  |
| N177K |  | 0.0715 |  | 0.0561 | 0.0657 |  |  |  | 0.0567 | 0.0575 |  |  | 0.0494 |  | 0.0537 | 0.0573 |  |  |
| I164R |  |  | 0.0557 | 0.0561 | 0.0541 | 0.0487 | 0.0622 | 0.052 | 0.0565 | 0.055 | 0.0565 |  | 0.045 |  |  | 0.0735 | 0.054 | 0.051 |
| E231R |  |  | 0.0677 | 0.0762 |  | 0.0583 | 0.063 | 0.0697 | 0.0707 | 0.0481 |  | 0.0406 |  | 0.0593 |  | 0.0387 | 0.0469 | 0.0556 |
| V220T |  | 0.0568 | 0.0593 |  |  |  |  |  | 0.0787 |  |  | 0.0496 | 0.0561 |  |  |  |  |  |
| R87P |  | 0.0571 |  | 0.0499 |  |  | 0.0816 | 0.0533 | 0.0558 | 0.049 |  |  | 0.0504 |  | 0.0486 |  |  |  |
| S121R | 0.0661 | 0.0533 | 0.0742 | 0.0745 | 0.0639 | 0.0355 | 0.0605 | 0.0638 | 0.0543 | 0.0629 | 0.0553 | 0.0585 | 0.056 | 0.0589 | 0.0655 | 0.0645 |  |  |
| H215M | 0.0526 |  | 0.0917 | 0.0795 | 0.0573 | 0.0588 | 0.0688 |  |  | 0.0584 |  |  |  |  | 0.0667 |  |  | 0.0535 |
| F180R |  |  | 0.0543 | 0.0571 | 0.0632 | 0.0483 | 0.0471 |  | 0.0515 | 0.0482 | 0.0561 | 0.0532 | 0.0475 | 0.0456 |  |  |  |  |
| L235G |  |  | 0.063 | 0.048 |  | 0.0441 |  | 0.0634 |  |  | 0.0467 |  | 0.0621 | 0.0598 |  |  |  |  |
| L235S |  | 0.0555 | 0.108 | 0.0756 | 0.0465 | 0.0639 |  |  |  | 0.0612 |  | 0.0673 |  |  | 0.0907 |  |  | 0.0735 |
| F101D |  |  | 0.0438 | 0.0391 |  |  |  |  |  |  |  |  |  |  |  | 0.0431 |  | 0.0544 |
| Q197S |  | 0.0614 | 0.0601 | 0.0612 | 0.054 | 0.0509 |  | 0.0684 | 0.062 | 0.0665 |  |  | 0.0544 | 0.059 | 0.0575 | 0.0519 |  | 0.0577 |
| N172K | 0.0734 |  | 0.0735 | 0.0651 |  | 0.0391 |  |  | 0.0604 | 0.0563 |  |  | 0.0669 |  |  | 0.0505 |  |  |
| N172F |  | 0.0535 |  |  | 0.0673 | 0.0442 |  | 0.0666 |  |  | 0.0574 | 0.0471 |  |  |  |  | 0.0552 | 0.0603 |
| I84P |  |  | 0.0247 | 0.0483 |  |  |  | 0.0337 |  |  | 0.031 | 0.0257 |  |  |  | 0.028 |  |  |
| P93F |  |  | 0.0552 | 0.0674 | 0.0411 | 0.0469 | 0.0499 |  | 0.0825 |  |  |  | 0.051 |  |  |  |  | 0.0432 |
| V217R |  | 0.0676 | 0.0689 | 0.07 | 0.047 | 0.0704 | 0.0858 | 0.0684 | 0.0539 | 0.0564 | 0.0654 | 0.0625 | 0.065 |  | 0.0668 |  |  |  |

| Variant | area with substrate ENLYFCS | area with substrate ENLYFDS | area with substrate ENLYFES | area with substrate ENLYFFS | area with substrate ENLYFHS | area with substrate ENLYFIS | area with substrate ENLYFKS | area with substrate ENLYFMS | area with substrate ENLYFNS | area with substrate ENLYFPS | area with substrate ENLYFRS | area with substrate ENLYFSS | area with substrate ENLYFTS | area with substrate ENLYFVS | area with substrate ENLYFGS | area with substrate ENLYFYS | area with substrate ENLYFLS | area with substrate ENLYFWS |
| --- | --- | --- | --- | --- | --- | --- | --- | --- | --- | --- | --- | --- | --- | --- | --- | --- | --- | --- |
| T129M |  |  | 0.0541 | 0.0722 | 0.0583 | 0.053 |  | 0.0694 | 0.0583 | 0.0553 | 0.0457 |  |  | 0.0485 |  |  | 0.0581 | 0.0525 |
| N186K |  |  | 0.0741 | 0.0804 |  | 0.0592 | 0.0951 |  |  | 0.0689 | 0.121 |  | 0.0853 |  |  |  |  | 0.0456 |
| N186C |  |  | 0.0697 | 0.0615 | 0.0796 | 0.0569 |  | 0.0648 |  | 0.0526 |  |  | 0.0525 |  | 0.0806 | 0.0381 |  | 0.0444 |
| N186Q |  | 0.0601 | 0.0639 |  |  | 0.0462 | 0.0677 |  |  | 0.058 |  |  | 0.0539 |  | 0.0666 |  |  |  |
| M88K |  |  | 0.0451 | 0.0331 | 0.0419 |  |  | 0.0577 | 0.0539 |  | 0.0533 | 0.0352 |  | 0.0881 | 0.047 |  |  | 0.0561 |
| W199I |  |  | 0.0549 | 0.059 |  | 0.0572 | 0.0623 | 0.0555 | 0.0651 | 0.045 |  |  | 0.0529 |  |  |  |  |  |
| F133T | 0.0498 |  | 0.073 | 0.072 |  | 0.0575 |  | 0.0727 | 0.0578 | 0.0579 |  |  | 0.072 |  |  |  |  |  |
| G153W |  | 0.054 |  | 0.0525 |  | 0.0597 | 0.0484 |  |  |  | 0.0395 |  |  |  |  |  |  | 0.0737 |
| P96G |  | 0.0666 | 0.0624 |  | 0.0601 | 0.0548 | 0.0677 | 0.0745 |  | 0.058 |  |  | 0.0901 |  |  |  |  | 0.0866 |
| F218D | 0.0594 |  | 0.052 | 0.0694 |  | 0.0648 | 0.0926 | 0.0693 |  |  | 0.0513 |  | 0.0625 | 0.055 | 0.061 |  |  |  |
| C131R |  |  | 0.0838 | 0.0816 |  | 0.0382 | 0.0673 | 0.0596 |  | 0.0594 | 0.0481 |  | 0.0589 | 0.0499 |  |  |  |  |
| N206E |  | 0.0495 |  | 0.0652 | 0.0593 | 0.0571 |  | 0.0699 | 0.0648 |  | 0.0657 | 0.0667 | 0.0666 | 0.056 | 0.0643 | 0.0445 |  |  |
| N206K |  | 0.0396 |  |  |  | 0.0577 |  | 0.0531 |  | 0.0878 |  |  |  | 0.0536 |  |  |  |  |
| S201Y |  |  | 0.0688 |  | 0.0541 |  |  | 0.0566 | 0.0596 | 0.0636 | 0.059 |  | 0.0366 | 0.0562 |  |  |  |  |
| I86Y |  |  | 0.0585 | 0.0596 | 0.0907 | 0.0548 |  |  | 0.0637 | 0.0562 |  | 0.0546 |  |  | 0.0589 | 0.0635 |  |  |
| P184T |  |  | 0.0817 | 0.0687 | 0.0658 | 0.0591 |  | 0.0771 |  | 0.0703 |  | 0.0482 | 0.0538 |  |  | 0.0551 |  | 0.0665 |
| T115P |  | 0.059 |  |  |  | 0.0543 |  |  |  | 0.0999 | 0.0546 | 0.0638 |  | 0.0508 | 0.0548 | 0.044 |  |  |
| Y179N |  | 0.0897 | 0.0615 |  |  | 0.0579 | 0.0622 |  | 0.0482 |  |  | 0.0539 | 0.0584 |  | 0.0532 |  | 0.0624 |  |
